Results published in PubChem BioAssay AID485281 (National Center for Advancing Translational Sciences (NCATS), 2010).
Out of some 350,000 compounds screened, about 260 (0.074%) were called active. The inconclusive results got no clear call from the source; some entries with a clear call stand among them for comparison. The call rests on the fitted dose curve; in most records, active means well fitted inhibition curve with a large enough effect; inconclusive means small, poorly fitted or top-dose-only effect; inactive means no such curve, though single readings can be large or run the other way. Where the call is inconclusive, the potency comes from a doubtful curve fit.

biological target: Ferritin light chain (Equus caballus) (UniProt P02791); test: qHTS Assay for Identification of Novel General Anesthetics; conditions: apoferritin/1-aminoanthracene competitive binding, fluorescence; activity change, negative = displacement: at 77.5 µM (top of the series); further: nearly all actives have a fitted effect of over 20% in size
Summary of the method: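 Horse-spleen apoferritin (10 uM) was mixed with 50% saturated 1-aminoanthracene in PBS, exposed to compounds for 10 min at room temperature, and read for fluorescence (ex 380 nm, em 535 nm). Competitive displacement was fitted with a four-parameter Hill equation.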
On the % scale 0 is the no-effect control and ±100 the full control effect; potency means the concentration at half of the fitted maximal effect; tags describe the fitted curve by direction and shape.

Chain of UniProt P02791 (P02791 whole entry, looked up): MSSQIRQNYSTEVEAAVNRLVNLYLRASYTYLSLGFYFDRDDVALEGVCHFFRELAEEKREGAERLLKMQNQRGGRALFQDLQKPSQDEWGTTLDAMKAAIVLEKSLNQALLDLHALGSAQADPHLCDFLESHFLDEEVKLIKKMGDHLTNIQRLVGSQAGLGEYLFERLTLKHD

Question: `FC(F)(F)c1cccc(N2CCN(Cc3nnc(-c4ccc5c(c4)OCO5)o3)CC2)c1` was tested. Which Potency did it give?
Answer: The Potency was inconclusive: 10 µM [inhibitor, partial curve].

Question: Which Potency does the source give for `N#CC(c1ccc(Cl)cc1)c1ccc(Cl)nn1` (centres undefined) here?
Answer: Its Potency is inconclusive: 44.7 µM [inhibitor, single point].

Question: `COc1ccc(Cc2nnc(Nc3ccc(C)cc3C)[nH]c2=O)cc1` was tested. Which Potency did it give?
Answer: The Potency was inconclusive: 31.6 µM [inhibitor, partial curve].

Question: How did the Potency turn out when `CN(C(=O)c1cc2ccccc2cc1O)C1CCCCC1` was run?
Answer: The Potency was inconclusive: 56.2 µM [inhibitor, single point].

Question: How did the Potency turn out when `Cc1cc(C)n(-c2ccc(C(=O)NCc3ccc4c(c3)OCO4)cc2)n1` was run?
Answer: Its Potency is inconclusive: 11.2 µM [inhibitor, partial curve].

Question: With `CCOc1ccc(CCNC(=O)CCn2cccc2)cc1OCC` as the molecule, how does the “activity change, negative = displacement” value read?
Answer: The value was inactive: -7.85%.

Question: `COc1ccc(CCNC(=O)C2CCN(c3ncnc4c3nc3n4CCCCC3)CC2)c(OC)c1` was tested. Which Potency did it give?
Answer: The Potency was inconclusive: 12.6 µM [inhibitor, partial curve].

Question: How did the Potency turn out when `CC1CCCC(NC(=O)COC(=O)CCc2ccccc2)C1C` (centres undefined) was run?
Answer: Its Potency is inconclusive: 14.1 µM [inhibitor, partial curve].

Question: With `CC(C)c1ccc(NC(=O)Cn2cccc2C2=NC(c3ccccc3)CO2)cc1` (centres undefined) as the molecule, how does the “activity change, negative = displacement” value read?
Answer: The value was inactive: -10.4%.

Question: For `CC(C)(C)C1CCc2c(sc(NC(=O)CCC(=O)O)c2C(=O)Nc2ccccc2C(F)(F)F)C1` (centres undefined), which Potency is on record?
Answer: Its Potency is inconclusive: 11.2 µM [inhibitor, partial curve].

Question: Which Potency does the source give for `CCN(CC)S(=O)(=O)c1ccc(C(=O)NCc2cccs2)cc1` here?
Answer: The Potency was inconclusive: 14.1 µM [inhibitor, partial curve].

Question: `Cc1c(NC2=C(Cl)C(=O)N(c3ccccc3)C2=O)c(=O)n(-c2ccccc2)n1C` was tested. Which “activity change, negative = displacement” value did it give?
Answer: The value was inactive: -23.5%.

Question: With `Fc1ccc(CSc2nc3ccccc3[nH]2)cc1` as the molecule, how does the Potency read?
Answer: Its Potency is inconclusive: 12.6 µM [inhibitor, partial curve].

Question: `CCOc1ccc(N2C(=O)CC(/C=C3/N(C)c4ccccc4C3(C)C)C2=O)cc1` (centres undefined) was tested. Which Potency did it give?
Answer: Its Potency is inconclusive: 31.6 µM [inhibitor, partial curve].

Question: `C/C=C/C=C/C(=O)OC(C)C(=O)Nc1cc([N+](=O)[O-])ccc1OC` (centres undefined) was tested. Which Potency did it give?
Answer: Its Potency is inconclusive: 31.6 µM [inhibitor, single point].

Question: With `O=S(=O)(Nc1ccccc1Cl)c1ccc(F)cc1` as the molecule, how does the Potency read?
Answer: Its Potency is inconclusive: 35.5 µM [inhibitor, single point].

Question: `COC(=O)c1sccc1NC(=O)Nc1ccc(C)cc1` was tested. Which “activity change, negative = displacement” value did it give?
Answer: The value was inactive: -6.16%.

Question: `Cn1c(C23CC4CC(CC(C4)C2)C3)n[nH]c1=S` was tested. Which Potency did it give?
Answer: The Potency was inconclusive: 50.1 µM [inhibitor, single point].

Question: How did the “activity change, negative = displacement” value turn out when `O=C(NCc1ccccc1)C1CCN(C(=O)c2cnn(-c3ccccc3)c2-n2cccc2)CC1` was run?
Answer: Its value is inactive: 1.51%.

Question: How did the Potency turn out when `O=C(CSc1nnc(C2COc3ccccc3O2)o1)Nc1ccc(F)cc1Cl` (centres undefined) was run?
Answer: The Potency was inconclusive: 35.5 µM [inhibitor, partial curve].

Question: With `Nc1ccc(Br)c2c1C(=O)c1ccccc1C2=O` as the molecule, how does the Potency read?
Answer: Its Potency is inconclusive: 25.1 µM [inhibitor, partial curve].

Question: How did the Potency turn out when `N#C/C(=C\c1c(F)cccc1Cl)C(=O)NC1CC1` was run?
Answer: Its Potency is inconclusive: 25.1 µM [inhibitor, partial curve].

Question: `Fc1ccccc1CNc1ncnc2sccc12` was tested. Which “activity change, negative = displacement” value did it give?
Answer: The value was inactive: -19.7%.

Question: `COc1ccc(NC(=O)CC2SC(=NCc3ccccc3OC)NC2=O)cc1` (centres undefined) was tested. Which Potency did it give?
Answer: Its Potency is inconclusive: 39.8 µM [inhibitor, partial curve].

Question: For `FC(F)(F)c1cc(-c2cccs2)n[nH]1`, which Potency is on record?
Answer: The Potency was inconclusive: 28.2 µM [inhibitor, single point].

Question: Which “activity change, negative = displacement” value does the source give for `Cc1cc(C)n(-c2nnc(Cl)c3ccccc23)n1` here?
Answer: The value was inactive: -3.02%.

Question: Which Potency does the source give for `CCN(CC)c1nc(=S)nc(NC(C)(C)C)[nH]1` here?
Answer: The Potency was inconclusive: 28.2 µM [inhibitor, partial curve].

Question: `COC(=O)C1C(=O)c2c([nH]c(C(=O)OCCOC(C)C)c2C)CC1C` (centres undefined) was tested. Which “activity change, negative = displacement” value did it give?
Answer: Its value is inactive: -12.3%.

Question: `O=c1c2ccccc2c2ccccc2c(=O)n1Cc1ccco1` was tested. Which Potency did it give?
Answer: The Potency was inconclusive: 50.1 µM [inhibitor, partial curve].

Question: For `O=C(NCc1ccc(Cl)cc1)c1n[nH]c([N+](=O)[O-])c1Cl`, which Potency is on record?
Answer: The Potency was inconclusive: 31.6 µM [inhibitor, single point].

Question: Which Potency does the source give for `Oc1c(C(c2ccc(Cl)cc2)N2CCCC2)cc(Cl)c2cccnc12` (centres undefined) here?
Answer: The Potency was inconclusive: 39.8 µM [inhibitor, single point].

Question: How did the “activity change, negative = displacement” value turn out when `Cc1cccn2c(=O)cc(COc3ccc(NC(=O)c4cccc(F)c4)cc3)nc12` was run?
Answer: The value was inactive: 47.3%.

Question: How did the “activity change, negative = displacement” value turn out when `CCc1cccc(NC(=O)Cn2cc(C(=O)c3ccncc3)c(=O)c3cc(C)c(C)cc32)c1` was run?
Answer: Its value is inactive: 31.9%.

Question: `Cc1ccc(NC2c3ncccc3C(=O)N2Cc2cccs2)cc1C` (centres undefined) was tested. Which Potency did it give?
Answer: The Potency was inconclusive: 50.1 µM [inhibitor, single point].

Question: With `Cc1cccc(C)c1Nc1nnc(SCC(=O)Nc2sccc2C#N)s1` as the molecule, how does the Potency read?
Answer: The Potency was inconclusive: 10 µM [inhibitor, full curve, poor fit].

Question: Which Potency does the source give for `N#C/C(=N\Nc1ccccc1)C(=N)N1CCCCC1` here?
Answer: Its Potency is inconclusive: 28.2 µM [inhibitor, partial curve].

Question: `COc1ccccc1CNC(=O)CCC1N=C2c3ccccc3N=C(SCc3ccccc3Cl)N2C1=O` (centres undefined) was tested. Which Potency did it give?
Answer: Its Potency is inconclusive: 2.51 µM [inhibitor, full curve].

Question: For `CCC(C(=O)Nc1cccc(C(F)(F)F)c1)c1ccccc1` (centres undefined), which Potency is on record?
Answer: Its Potency is inconclusive: 20 µM [inhibitor, partial curve].

Question: How did the Potency turn out when `CC(Oc1ccccc1)C(=O)Nc1cccc([N+](=O)[O-])c1` (centres undefined) was run?
Answer: Its Potency is inconclusive: 39.8 µM [inhibitor, partial curve].

Question: Which “activity change, negative = displacement” value does the source give for `COc1ccc(/C(N)=N/OC(=O)c2cccs2)cc1` here?
Answer: Its value is inactive: -8.66%.

Question: For `Cc1ccc2nc(Cl)c(CN(C(=O)c3cnccn3)C3CCCCC3)cc2c1`, which Potency is on record?
Answer: The Potency was inconclusive: 35.5 µM [inhibitor, partial curve].

Question: For `CCCCn1nnc(NC(=O)c2ccc(-c3cccc(Cl)c3)o2)n1`, which Potency is on record?
Answer: Its Potency is inconclusive: 35.5 µM [inhibitor, partial curve].

Question: Which Potency does the source give for `COc1ccccc1OCc1ccc(C(=O)c2ccccc2)cc1` here?
Answer: Its Potency is inconclusive: 39.8 µM [inhibitor, single point].

Question: With `CC1(C)CC(=O)C2=C(C1)N=C1SCCC(=O)N1C2c1ccc(C(F)(F)F)cc1` (centres undefined) as the molecule, how does the Potency read?
Answer: Its Potency is inconclusive: 17.8 µM [inhibitor, partial curve].

Question: `O=[N+]([O-])c1ccc(N/N=C/c2sc(N3CCOCC3)nc2-c2ccccc2)c(S(=O)(=O)Nc2ccc(Cl)cc2)c1` was tested. Which “activity change, negative = displacement” value did it give?
Answer: Its value is inactive: -2.88%.

Question: Which Potency does the source give for `Cn1cnnc1SCc1ccc(-c2ccc(Br)cc2)o1` here?
Answer: The Potency was inconclusive: 31.6 µM [inhibitor, partial curve].

Question: `NNC(=O)c1ccc([N+](=O)[O-])c(CS(=O)(=O)c2ccc(Cl)cc2)c1` was tested. Which Potency did it give?
Answer: Its Potency is inconclusive: 20 µM [inhibitor, partial curve].

Question: With `COc1ccc2c(c1)C(=O)N(c1ccccc1OC)C(=O)C2(C)C` as the molecule, how does the Potency read?
Answer: Its Potency is inconclusive: 50.1 µM [inhibitor, single point].

Question: With `Nc1ccccc1Sc1nc2ccccc2[nH]1` as the molecule, how does the “activity change, negative = displacement” value read?
Answer: Its value is inactive: -3.74%.

Question: `O=C(NCc1ccccc1)C1=C[C@@H](c2csc3ccccc23)C[C@@H](OCCCCO)O1` was tested. Which Potency did it give?
Answer: The Potency was inconclusive: 25.1 µM [inhibitor, partial curve].

Question: Which Potency does the source give for `ON1C(c2ccccc2C(F)(F)F)N(O)[C@H]2CCCC[C@H]21` (some centres undefined) here?
Answer: The Potency was inconclusive: 15.8 µM [inhibitor, partial curve].

Question: `Cc1cc(C(=O)CN2C(=O)NC(CC(C)C)C2=O)c(C)n1-c1ccccc1F` (centres undefined) was tested. Which Potency did it give?
Answer: The Potency was inconclusive: 35.5 µM [inhibitor, partial curve, poor fit].

Question: With `CC(=O)OC1COC(N2CCc3cc([N+](=O)[O-])ccc32)C(OC(C)=O)C1OC(C)=O` (centres undefined) as the molecule, how does the Potency read?
Answer: The Potency was inconclusive: 56.2 µM [inhibitor, single point].

Question: How did the “activity change, negative = displacement” value turn out when `Cc1c(Nc2cc(Cl)c3nonc3c2[N+](=O)[O-])c(=O)n(-c2ccccc2)n1C` was run?
Answer: Its value is inactive: -23.8%.

Question: `O=C(Nc1ccc2c(c1)OCO2)c1ccc(S(=O)(=O)N2CCCC2)cc1` was tested. Which Potency did it give?
Answer: Its Potency is inconclusive: 35.5 µM [inhibitor, single point].

Question: How did the Potency turn out when `COc1cc(CNCCN2CCOCC2)ccc1OCc1c(Cl)cccc1Cl` was run?
Answer: Its Potency is inconclusive: 35.5 µM [inhibitor, partial curve].

Question: With `Cc1ccc2c(c1)OC(=O)CC2c1ccccc1` (centres undefined) as the molecule, how does the Potency read?
Answer: The Potency was inconclusive: 44.7 µM [inhibitor, single point].

Question: How did the “activity change, negative = displacement” value turn out when `Cc1ccc2oc3c(c(=O)c2c1)C(c1cccc(O)c1)N(Cc1ccccc1Cl)C3=O` (centres undefined) was run?
Answer: The value was inactive: -8.14%.

Question: How did the Potency turn out when `O=C(COC(=O)CCc1nc2ccccc2s1)Nc1ccc(S(=O)(=O)N2CCOCC2)cc1` was run?
Answer: Its Potency is inconclusive: 12.6 µM [inhibitor, partial curve].

Question: How did the Potency turn out when `COc1cccc(NC(=O)C2CCCN2S(=O)(=O)c2ccc3c(c2)C(C)(C)C(=O)N3C)c1` (centres undefined) was run?
Answer: The Potency was “inactive”.

Question: `Cc1ccc(SCCNC(=O)c2ccc(C)c([N+](=O)[O-])c2)cc1` was tested. Which Potency did it give?
Answer: Its Potency is inconclusive: 28.2 µM [inhibitor, partial curve].

Question: For `CC(C)Sc1ncc(Cl)c(C(=O)N(Cc2ccc(F)cc2)C2CCS(=O)(=O)C2)n1` (centres undefined), which “activity change, negative = displacement” value is on record?
Answer: The value was inactive: -4.76%.

Question: For `O=C(OC1CCCCC1)c1cc2ccccc2oc1=O`, which “activity change, negative = displacement” value is on record?
Answer: The value was inactive: -15.3%.

Question: For `CN(CC(=O)Nc1cccc(F)c1)C(=O)c1ccc(-c2ccc(Cl)cc2)o1`, which Potency is on record?
Answer: Its Potency is inconclusive: 39.8 µM [inhibitor, partial curve].

Question: For `COc1cc(-c2nnc(SCC(=O)c3ccccc3)o2)cc(OC)c1OC`, which Potency is on record?
Answer: Its Potency is inconclusive: 28.2 µM [inhibitor, partial curve].

Question: `C=CCN(c1ccccc1)S(=O)(=O)c1cccc(C(=O)Nc2nnc(SCC)s2)c1` was tested. Which “activity change, negative = displacement” value did it give?
Answer: The value was inactive: -15.6%.

Question: Which Potency does the source give for `COc1ccc(OCc2cc(C(=O)NCC3(C)COC3)no2)c(Cl)c1` here?
Answer: The Potency was inconclusive: 31.6 µM [inhibitor, partial curve].

Question: With `CCOC(=O)c1cnc2c(cnn2C)c1NCCC(O)C(F)(F)F` (centres undefined) as the molecule, how does the Potency read?
Answer: Its Potency is inconclusive: 15.8 µM [inhibitor, partial curve].

Question: How did the Potency turn out when `CCOC(=O)C(C(C)=O)c1c(Br)c(O)c(O)c2c(C(=O)c3ccc(C)cc3)coc12` (centres undefined) was run?
Answer: Its Potency is inconclusive: 31.6 µM [inhibitor, single point].
